# Assay results reported in PubChem BioAssay (Tox21).
# Several values for one entry are separate records, joined by “and”; a condition that tells them apart may be missing. Equal entries are not always repeated. The shares of active, inactive and inconclusive entries below differ from those in the screen. Where the call is inconclusive, the potency comes from a doubtful curve fit. Activity calls are given as the source filed them. Calls come from the whole dose curve; as a rule, active = well fitted cell-killing curve with a large enough effect in the repeat runs; inconclusive = weak or mixed curves, or effect the other way; inactive = no such curve, though single readings can be large or run the other way.
# Assay: qHTS assay to identify small molecule antagonists of the peroxisome proliferator-activated receptor gamma (PPARg) signaling pathway - cell viability counter screen (AID 743194); note: nearly all actives have a fitted effect of over 55% in size
# Conditions: PPARg-bla HEK293H viability, CellTiter-Glo luminescence, 17 h, co-treated with 50 nM rosiglitazone; activity change, negative = cytotoxicity: at 62.6 µM (top of the series)
# From the text: U.S. Tox21 Program National Center for Advancing Translational Sciences [NCATS] NIH Chemical Genomics Center [NCGC] U.S. Environmental Protection Agency [EPA] National Institutes of Environmental Health Sciences [NIEHS] National Toxicology Program [NTP] U.S. Food and Drug Administration [FDA] Tox21 Assay Overview: The peroxisome proliferator-activated receptors (PPARs) are lipid-activated transcription factors of the nuclear receptor superfamily with three distinct subtypes namely PPAR alpha, PPAR delta (also called PPAR beta) and PPAR gamma (PPARg). All these subtypes heterodimerize with Retinoid X receptor (RXR) and these heterodimers regulate transcription of various genes. PPAR-gamma receptor (glitazone receptor) is involved in the regulation of glucose and lipid metabolism. To identify the compounds that activate PPAR-gamma signaling, GeneBLAzer PPAR gamma UAS-bla HEK293H cell line (Invitrogen, Carlsbad, CA, USA) containing a beta-lactamase reporter gene under the control of an Upstream Activator Sequence (UAS) was used to screen the Tox21 compound library. The cytotoxicity of the Tox21 compound library against the PPARg-bla cell line was tested in parallel by measuring the cell viability using CellTiter-Glo assay in the same wells.
# Tox21 Assay Protocol Summary: PPARg-bla cells were dispensed at 3000 cells/5uL/well in 1536-well black wall/clear bottom plates using a Multidrop Combi (Thermo Fisher Scientific, Waltham, MA) dispenser. After the assay plates were incubated at 37 C and 5% CO2 for 5 h, 23 nL of compounds dissolved in DMSO, positive controls or DMSO only was transferred to the assay plate by a Pintool station (Kalypsys, San Diego, CA), followed by addition of 1ul Rosiglitazone (50 nM, final concentration in the wells). The assay plates were incubated at 37 C for 17 h, and then 1 uL of LiveBLAzerTM B/G FRET substrate was added using a Bioraptr Flying Reagent Dispenser (FRD) workstation (Beckman Coulter, Indianapolis, IN, USA). The assay plates were incubated at room temperature for 1 h and fluorescence intensity was measured by an Envision plate reader (PerkinElmer, Shelton, CT). For cell viability readout that measures cytotoxicity, 4 ul/well of CellTiter-Glo reagent was added into the assay plates using a Flying Reagent Dispenser. After 30 min incubation at room temperature, the luminescence intensity in the plates was measured using a ViewLux plate reader (PerkinElmer).
# % is set by controls: 0 for no effect and ±100 for the full control effect; potency is the fitted concentration of half-maximal effect; tags give direction and shape of the fitted curve.
Structure (SMILES),Potency,"activity change, negative = cytotoxicity"
c1cnc2c(c1)ccc1cccnc12,"inconclusive: 3.5 µM [cytotoxic, full curve, poor fit] and active: 1.23 µM and inconclusive: 8.71 µM [cytotoxic, partial curve, poor fit]",–
C[C@H](CCC(=O)O)[C@H]1CC[C@H]2[C@@H]3[C@H](O)C[C@@H]4C[C@H](O)CC[C@]4(C)[C@H]3CC[C@]12C,–,inactive: -19.1%
NNc1nc(-c2ccc([N+](=O)[O-])cc2)cs1,active: 24.5 µM,–
CN1CCOCC1,"inconclusive: 34.7 µM [rising, single point]",inconclusive: -3.25%
CN(C)CCOC(C)(c1ccccc1)c1ccccn1 (stereo not given),"inconclusive: 4.22 µM [cytotoxic, full curve, poor fit]",–
COC(=O)C1=C(C)NC(C)=C(C(=O)OCCCN2CCC(c3ccccc3)(c3ccccc3)CC2)C1c1cccc([N+](=O)[O-])c1 (stereo not given),active: 33.5 µM,–
C=CC(=O)OCCCCCCOC(=O)C=C,"inconclusive: 39.4 µM [cytotoxic, partial curve, poor fit]",–
CN1Cc2cc(C(=O)N3CCC(C4CCNCC4)CC3)ccc2NC(CC(=O)O)C1=O (stereo not given),–,inactive: 8.44%
Cc1cc(N)c2cc(NC(=O)Nc3ccc4nc(C)cc(N)c4c3)ccc2n1,"inconclusive: 26.6 µM [cytotoxic, single point]",–
C=CC(=O)OCCC#N,"inconclusive: 5.53 µM [cytotoxic, full curve, poor fit]",–
CCCCCCCCCCCO,"inconclusive: 61.6 µM [cytotoxic, single point]",–
NCCNc1cccc2ccccc12,"inconclusive: 15.5 µM [cytotoxic, partial curve, poor fit] and inconclusive: 17 µM [cytotoxic, partial curve, poor fit] and inconclusive: 150 nM [cytotoxic, full curve, poor fit]",–
C[C@@H](C1=C(CCN(C)C)Cc2ccccc21)c1ccccn1,–,inactive: 0.162%
CCOC(=O)c1nc(C(Cl)(Cl)Cl)n(-c2ccc(Cl)cc2Cl)n1,"inconclusive: 13.8 µM [cytotoxic, full curve, poor fit]",–
CCCC(=O)O,"inconclusive: 7.28 µM [rising, partial curve, poor fit]",–
CCCCCCCCCCCC[N+](C)(C)Cc1ccccc1,active: 17 µM and active: 15 µM and active: 26.6 µM,–
CCOCCn1c(N2CCCN(C)CC2)nc2ccccc21,"inconclusive: 0.531 µM [cytotoxic, full curve, poor fit]",–
C[C@H]1[C@H]2CC[C@H]3[C@@H]4CC=C5C[C@@H](N(C)C)CC[C@]5(C)[C@H]4CC[C@]23CN1C,–,inconclusive: -0.321% [cytotoxic]
COc1ccc2cc1Oc1ccc(cc1)C[C@H]1c3c(cc4c(c3Oc3cc5c(cc3OC)CCN(C)[C@@H]5C2)OCO4)CCN1C,"inconclusive: 59.6 µM [cytotoxic, single point]",–
O=C1[C@@H]2[C@H]3CC[C@H](C3)[C@@H]2C(=O)N1CCCCN1CCN(c2ncccn2)CC1,–,inactive: -5.08%

Structure (SMILES),Potency,"activity change, negative = cytotoxicity"
O=S(=O)(O)c1ccc2nc(-c3ccccc3)[nH]c2c1,"inconclusive: 6.58 µM [cytotoxic, full curve, poor fit]",–
CCC1COC(=O)O1 (stereo not given),–,inactive: -3.58%
O=C(O)c1cc(N=Nc2ccc([N+](=O)[O-])cc2)ccc1O,"inconclusive: 1.08 µM [rising, single point]",–
CC(=O)Oc1ccc(C2(c3ccc(OC(C)=O)cc3)C(=O)Nc3ccccc32)cc1,–,inactive: -6.52%
[Cl][Au]([Cl])[Cl],"inconclusive: 43.6 µM [cytotoxic, partial curve, poor fit]",–
O=C(O)c1ccc(Cl)c(Cl)c1,"inconclusive: 38.9 µM [rising, single point]",–
N#CSc1ccc(N)c([N+](=O)[O-])c1,"inconclusive: 49.3 µM [cytotoxic, single point]",–
O=C(O)CCN(C1(C(=O)NO)CCCC1)S(=O)(=O)c1ccc(Oc2ccc(F)cc2)cc1,"inconclusive: 0.0977 µM [cytotoxic, full curve, poor fit]",–
CNCC[C@H](Oc1cccc2ccccc12)c1cccs1,active: 11.9 µM,–
O=C1NC2CCCCN2C12CCN(CCCN1c3ccccc3CCc3ccc(Cl)cc31)CC2 (stereo not given),active: 26.6 µM,–
Cc1c(C)c2c(c(C)c1OC(=O)CCC(=O)OCCO)CC[C@@](C)(CCC[C@H](C)CCC[C@H](C)CCCC(C)C)O2,active: 33.5 µM,–
CCN(Cc1cccnc1)C(=O)c1cccc(Cl)c1[C@]1(C)C(=O)N(Cc2ccc(OC)cc2OC)c2ccc(Cl)cc21,"inconclusive: 1.15 µM [cytotoxic, full curve, poor fit]",–
O=C1CCCc2c(O)cccc21,–,inactive: 3.89%
C/C=C(/C(=C/C)c1ccc(OC(C)=O)cc1)c1ccc(OC(C)=O)cc1,"inconclusive: 33.5 µM [cytotoxic, single point]",–
CCCCCCCCCCCCCCCS(=O)(=O)Oc1ccccc1,–,inactive: 17.8%
C=CC(=O)OCCOCCOC(=O)C=C,"inconclusive: 12.4 µM [cytotoxic, partial curve]",–
CC(C(=O)O)c1ccc(-c2ccccc2)c(F)c1 (stereo not given),–,inactive: 1.33%
CCCCOC(=O)CCCCCCCCC(=O)OCCCC,"inconclusive: 21.1 µM [cytotoxic, partial curve, poor fit]",–
CCCOCCC,–,inactive: 22.7%
